# According to PubChem BioAssay AID504333 (National Center for Advancing Translational Sciences (NCATS), 2011):
# The campaign covered roughly 360,000 compounds. About 16,000 (4.4%) were called active. This list was built around the results that the source calls inconclusive (neither active nor inactive); the mix of calls is not that of the screen. The call rests on the fitted dose curve; in most records, active means well fitted inhibition curve with a large enough effect; inconclusive means small, poorly fitted or top-dose-only effect; inactive means no such curve, though single readings can be large or run the other way. Where the call is inconclusive, the potency comes from a doubtful curve fit.
# Biological target: Bromodomain adjacent to zinc finger domain protein 2B (Homo sapiens) (UniProt Q9UIF8)
# Experiment: qHTS Assay for Inhibitors of BAZ2B; further: nearly all actives have a fitted effect of over 60% in size
# Settings: AlphaScreen BAZ2B-H3K14Ac peptide displacement; activity change, negative = inhibition: at 114 µM (top of the series)
# Procedure, shortened: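 In this displacement format the biotinylated H3(5-23) peptide acetylated at Lys14 serves as ligand at 50 nM, with BAZ2B at 50 nM in PBS pH 7.4 containing 0.01% Tween-20. Donor and acceptor beads are 10 ug/mL final.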
# On the % scale 0 is the no-effect control and ±100 the full control effect; potency means the concentration at half of the fitted maximal effect; tags describe the fitted curve by direction and shape.
# UniProt Q9UIF8, sequence (Q9UIF8 whole entry, looked up, the tested form may be a part): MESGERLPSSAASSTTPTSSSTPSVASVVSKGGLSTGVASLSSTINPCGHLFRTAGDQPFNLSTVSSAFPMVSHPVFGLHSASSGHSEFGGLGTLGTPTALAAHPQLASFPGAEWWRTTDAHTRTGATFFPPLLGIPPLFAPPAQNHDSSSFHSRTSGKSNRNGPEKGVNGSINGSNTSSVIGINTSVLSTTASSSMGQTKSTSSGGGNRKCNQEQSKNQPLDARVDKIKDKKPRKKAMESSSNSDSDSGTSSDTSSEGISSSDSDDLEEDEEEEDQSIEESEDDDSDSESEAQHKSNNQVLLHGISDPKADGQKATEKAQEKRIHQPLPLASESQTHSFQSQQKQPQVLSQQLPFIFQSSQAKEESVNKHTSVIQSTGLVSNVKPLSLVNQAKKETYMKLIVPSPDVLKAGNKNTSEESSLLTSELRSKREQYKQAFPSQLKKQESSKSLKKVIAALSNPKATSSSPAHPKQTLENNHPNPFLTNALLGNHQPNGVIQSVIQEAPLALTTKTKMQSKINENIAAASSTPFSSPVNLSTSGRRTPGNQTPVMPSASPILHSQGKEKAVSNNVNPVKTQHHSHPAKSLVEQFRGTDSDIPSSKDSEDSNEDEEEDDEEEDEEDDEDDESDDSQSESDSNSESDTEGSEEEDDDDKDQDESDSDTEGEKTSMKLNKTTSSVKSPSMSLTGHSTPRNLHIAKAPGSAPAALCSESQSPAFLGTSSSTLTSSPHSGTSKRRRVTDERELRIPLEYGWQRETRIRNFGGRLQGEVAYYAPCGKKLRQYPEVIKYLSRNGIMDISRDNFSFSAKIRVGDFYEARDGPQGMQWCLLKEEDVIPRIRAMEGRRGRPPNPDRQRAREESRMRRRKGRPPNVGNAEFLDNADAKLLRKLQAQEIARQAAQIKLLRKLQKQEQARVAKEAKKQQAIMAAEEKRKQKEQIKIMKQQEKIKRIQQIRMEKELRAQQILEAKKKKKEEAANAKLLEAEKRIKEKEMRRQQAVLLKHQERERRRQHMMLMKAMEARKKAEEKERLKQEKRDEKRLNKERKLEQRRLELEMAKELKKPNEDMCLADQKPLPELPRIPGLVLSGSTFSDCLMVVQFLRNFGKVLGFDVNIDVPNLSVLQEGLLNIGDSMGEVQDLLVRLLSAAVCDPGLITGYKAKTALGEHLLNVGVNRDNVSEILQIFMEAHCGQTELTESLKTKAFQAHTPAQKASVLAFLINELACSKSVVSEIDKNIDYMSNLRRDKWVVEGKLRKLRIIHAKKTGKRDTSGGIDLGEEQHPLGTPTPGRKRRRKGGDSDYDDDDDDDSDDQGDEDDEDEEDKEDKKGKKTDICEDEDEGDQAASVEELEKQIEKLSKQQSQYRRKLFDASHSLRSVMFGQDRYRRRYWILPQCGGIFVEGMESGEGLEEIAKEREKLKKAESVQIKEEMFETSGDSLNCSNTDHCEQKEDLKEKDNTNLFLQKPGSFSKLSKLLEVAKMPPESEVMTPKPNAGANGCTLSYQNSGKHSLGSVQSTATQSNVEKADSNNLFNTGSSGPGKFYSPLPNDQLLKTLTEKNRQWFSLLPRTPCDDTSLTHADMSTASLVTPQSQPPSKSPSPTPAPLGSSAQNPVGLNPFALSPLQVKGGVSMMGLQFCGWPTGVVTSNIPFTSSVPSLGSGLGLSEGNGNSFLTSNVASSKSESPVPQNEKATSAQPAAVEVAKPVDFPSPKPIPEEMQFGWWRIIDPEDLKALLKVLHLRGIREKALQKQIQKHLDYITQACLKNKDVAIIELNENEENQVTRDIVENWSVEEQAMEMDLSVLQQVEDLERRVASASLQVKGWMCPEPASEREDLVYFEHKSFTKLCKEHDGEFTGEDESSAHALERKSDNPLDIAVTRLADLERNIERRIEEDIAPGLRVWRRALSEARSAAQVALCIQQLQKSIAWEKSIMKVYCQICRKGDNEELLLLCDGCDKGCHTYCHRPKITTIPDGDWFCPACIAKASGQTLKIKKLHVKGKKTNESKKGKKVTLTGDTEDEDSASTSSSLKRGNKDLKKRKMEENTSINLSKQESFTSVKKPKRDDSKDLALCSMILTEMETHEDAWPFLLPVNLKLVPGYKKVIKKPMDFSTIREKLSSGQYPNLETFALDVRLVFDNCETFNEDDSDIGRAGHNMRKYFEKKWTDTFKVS
SMILES,"activity change, negative = inhibition",Potency
Cc1ccc2[nH]c(=O)c3cc(C(=O)NCCCN4CCC(C)CC4)sc3c2c1,inactive: -0.714%,
O=C(Nc1ccccn1)C12CC3CC(C1)CC(C(=O)Nc1ccccn1)(C3)C2,,"inconclusive: 89.1 µM [inhibitor, single point]"
COc1ccc(NC(C)c2ccccc2)cc1 (configuration not stated),,active: 39.8 µM
C=CCNCCOCCOc1ccc(Cl)cc1C(C)(C)C,,active: 50.1 µM
O=C(Nc1ccc(N2CCCC2)cc1)C(Cl)c1ccccc1 (configuration not stated),,active: 50.1 µM
CCOc1ccccc1-c1ccc(C(=O)NCc2ccccc2)o1,,"inconclusive: 31.6 µM [inhibitor, partial curve]"
COc1ccc(Nc2ncnc3c2nc2n3CCCCC2)cc1,inactive: -3.49%,
Cc1ccc(C)c(N2CCN(C(=O)CCCOc3cc(=O)n(C)c4ccccc34)CC2)c1,,"inconclusive: 50.1 µM [inhibitor, partial curve]"
O=C(NN1CCOCC1)c1ccccc1Br,,"inconclusive: 89.1 µM [inhibitor, single point]"
CC1=NN(c2ccc(C(F)(F)F)cn2)C(=O)C1,,active: 8.91 µM
CCC(=O)N1CCc2cc(S(=O)(=O)NC(C(=O)NCc3ccc(C)cc3)C(C)C)ccc21 (configuration not stated),,"inconclusive: 31.6 µM [inhibitor, single point]"
O=C(CCc1c[nH]c2ccccc12)OCc1cccc([N+](=O)[O-])c1,,"inconclusive: 39.8 µM [inhibitor, partial curve]"
O=C(COc1coc(CN2CCc3ccccc32)cc1=O)NCCc1ccccc1,,"inconclusive: 79.4 µM [inhibitor, single point]"
COc1ccc(/C=N/OCC(=O)N=Nc2c(O)[nH]c3ccc(Br)cc23)cc1OC,,"inconclusive: 89.1 µM [inhibitor, single point]"
COC(=O)c1c(-n2c(C)cc(C=O)c2C)sc2c1CCCC2,,"inconclusive: 50.1 µM [inhibitor, partial curve]"
O=S(=O)(Nc1ccccc1O)c1ccc(-c2ccccc2)cc1,,"inconclusive: 50.1 µM [inhibitor, partial curve]"
Cc1nc2ccccc2n1C1CCN(C(=O)Nc2ccccc2)CC1,inactive: -14.6%,
CS(=O)(=O)C1=NSC2=NC(=O)/C(=C\c3ccc(OC(=O)c4ccco4)c(Br)c3)C(=N)N21,,active: 56.2 µM
CCC12CN3CCN(CC(C3)/C1=N\NC(=O)c1ccc(F)cc1)C2,inactive: -10.8%,
COc1cc(C(=O)N2CCN(C(=O)c3ccco3)CC2)cc(OC)c1OC,inactive: -4.94%,
Cc1c(C(=O)N2CCOCC2)oc2c1-c1nn(CC(=O)NCc3cccc(Cl)c3)cc1CC2,,"inconclusive: 89.1 µM [inhibitor, single point]"
O=C(/C=C/C=C/c1ccccc1)CC1(O)C(=O)N(CCc2ccccc2)c2ccccc21 (configuration not stated),,"inconclusive: 35.5 µM [inhibitor, full curve, poor fit]"
COc1ccc(OCc2cc(C(=O)NCCN3CCCc4ccccc43)no2)c(Cl)c1,,"inconclusive: 14.1 µM [inhibitor, full curve]"
Cn1cccc1Cc1nnc(SCC(=O)NCc2ccc(F)cc2)n1-c1ccc(F)cc1,,"inconclusive: 79.4 µM [inhibitor, single point]"

SMILES,"activity change, negative = inhibition",Potency
COc1cc(/C=N/NC(=S)Nc2cccc(C(=O)O)c2)ccc1O,inactive: 5.91%,
Cc1ccc2oc(=O)n(Cc3ccccc3OC(C)C)c2c1,inactive: 71.2%,
COc1cc(OC)cc(-c2nc3n(n2)C(c2ccccc2)C(C(N)=O)=C(C)N3)c1 (configuration not stated),inactive: -1.55%,
O=[N+]([O-])c1ccc(-c2csc(Nc3ccccc3)[n+]2Cc2ccccc2)cc1,,active: 39.8 µM
CN1\C(=C/C=C/C=C/C=[N+](C)C)C(C)(C)c2ccccc21,,active: 11.2 µM
CCOc1cccc(C(=O)Nc2nc3c(s2)CC(C(C)(C)C)CC3)c1 (configuration not stated),,"inconclusive: 89.1 µM [inhibitor, single point]"
O=C(NCc1ccco1)c1ccc2c(c1)N(Cc1ccc(F)cc1)C(=O)c1ccccc1S2(=O)=O,inactive: -21.4%,
COc1ccc(C(O)c2nc3ccccc3n2C(C)C)cc1 (configuration not stated),inactive: 0.829%,
O=C1/C(=C/c2ccccc2)SC(=S)N1N1C(=O)C2CC2C1=O (configuration not stated),inactive: -26.2%,
NC(=O)[C@H](Cc1cc2ccccc2s1)NC(=O)[C@@H]1CC2(CC(c3cccc(NC(=O)[C@@H]4CCC(=O)N4)c3)=NO2)CN1C(=O)/C=C/Sc1ccccc1 (some centres not stated),,"inconclusive: 44.7 µM [inhibitor, partial curve]"
CC1CC(C)CN(CCCNC(=O)CN2C(=O)CSc3ccc(S(=O)(=O)N4CCOCC4)cc32)C1 (configuration not stated),inactive: -3.5% [at 57.1 µM],
COc1ccc(CN(C)C2CCCCC2)c(C)c1C,,"inconclusive: 7.08 µM [inhibitor, single point]"
O=C(COc1cccc2c1CCN(Cc1ccc(Br)cc1)C2=O)NCc1ccco1,,"inconclusive: 79.4 µM [inhibitor, single point]"
C(=N\Nc1ccc(-n2ccnc2)nn1)/c1ccccc1,,"inconclusive: 100 µM [inhibitor, single point]"
CCOc1ccc(CNC(=O)c2ccc3c(c2)nc2n3CCOC2)cc1OC,inactive: 1.79%,
CCCOc1cccc(C(=O)Nc2cc(-c3ccccc3)no2)c1,inactive: 9.94%,
CC1=C(c2ccc(C(C)C)cc2)S(=O)(=O)N=C1N1CCC(C(=O)NCCc2ccco2)CC1,inactive: -11.4%,
O=C(CCc1ccc(O)c(O)c1)NNC(=S)NCCc1ccccc1,inactive: 2.85%,
Cc1ccc(CNC(=O)c2ccc3nc(SCc4ccc(F)cc4)[nH]c3c2)cc1,,active: 39.8 µM
CS(=O)(=O)N1CCCC(C(=O)Nc2ccc(Br)cc2F)C1 (configuration not stated),,"inconclusive: 5.62 µM [inhibitor, partial curve, poor fit]"
COc1ccc2c(c1)NC(C)(C)C=C2C,,active: 39.8 µM
COc1ccc(CN2C(=O)C(Cc3ccccc3)Nc3ncnc(N4CCc5ccccc5C4)c32)cc1 (configuration not stated),,"inconclusive: 79.4 µM [inhibitor, single point]"
COc1ccc(C(=O)Nc2cc(C(=O)c3ccccc3)c(C)oc2=O)cc1,,"inconclusive: 79.4 µM [inhibitor, single point]"
CC(C)C(NC(=O)c1ccccc1F)C(=O)Nc1ccc2c(c1)OCO2 (configuration not stated),,"inconclusive: 79.4 µM [inhibitor, single point]"

SMILES,"activity change, negative = inhibition",Potency
CN(C)[C@@H](CO)c1nnc([C@H](CCC(=O)O)NC(=O)C2CCNCC2)o1,,"inconclusive: 79.4 µM [inhibitor, single point]"
COc1cc(C2C(C(=O)c3ccco3)=C(O)C(=O)N2CC2CCCO2)ccc1O (configuration not stated),,"inconclusive: 89.1 µM [inhibitor, single point]"
Cc1ccc2c(c1)c1c(n2CC(O)CN2CCCCCC2)CCCC1 (configuration not stated),,active: 35.5 µM
Cc1ccc(-c2nnc(N(C)C(=O)C3CCCO3)s2)cn1 (configuration not stated),,"inconclusive: 79.4 µM [inhibitor, single point]"
Cc1ccc2nc3c(c(N)c2c1)CCN3C,,active: 79.4 µM
CC(C)CN(CC(C)C)c1ccc(/C=N/n2cnnc2)cc1[N+](=O)[O-],,"inconclusive: 39.8 µM [inhibitor, partial curve]"
COc1cc(/C=N/NC(=O)Cn2cnc3c2c(=O)n(C)c(=O)n3C)cc(OC)c1OC,inactive: 3.05%,
COc1ccc(-c2nnn(CC(=O)N(CCCN3CCOCC3)C(C(=O)NC3CCCC3)c3ccc(C)o3)n2)cc1 (configuration not stated),,"inconclusive: 89.1 µM [inhibitor, partial curve]"
CN(C)c1cccc(C(=O)NCc2ccc3c(c2)OCO3)c1,,"inconclusive: 50.1 µM [inhibitor, partial curve]"
COc1ccc(S(=O)(=O)C(C#N)c2nc3ccccc3nc2N2CCCC(C)C2)cc1 (configuration not stated),,active: 44.7 µM
COC(=O)c1cccc(NC(=O)COC(=O)CSc2nc(C)cc(C)n2)c1,inactive: -3.18%,
Cc1ccc(C(=O)/C=C/NNC(=O)c2ccccc2O)cc1,,active: 50.1 µM
CC(C)(C)c1ccc(C(=O)NCC(c2ccc(Cl)cc2)N2CCOCC2)cc1 (configuration not stated),,"inconclusive: 89.1 µM [inhibitor, single point]"
Cc1ccc(OCCOCCN2CCCC2)c(Br)c1,,active: 56.2 µM
O=C(NC(=S)N1CCN(c2ccc(C(F)(F)F)cc2[N+](=O)[O-])CC1)c1cccs1,,"inconclusive: 39.8 µM [inhibitor, partial curve]"
Cc1nn(C)cc1CN(C)C(=O)c1ccc(OC2CCN(Cc3ccccn3)CC2)cc1,,"inconclusive: 89.1 µM [inhibitor, single point]"
Cc1cc(C)cc(NC(=O)C(OC(=O)c2ccc([N+](=O)[O-])o2)c2ccccc2)c1 (configuration not stated),,"inconclusive: 31.6 µM [inhibitor, full curve, poor fit]"
C/C(N)=C(/C#N)C(=O)CN1C(=O)NC(Cc2c[nH]c3ccccc23)C1=O (configuration not stated),,"inconclusive: 56.2 µM [inhibitor, partial curve]"
O=C(O)c1ccc(-c2nc(-c3ccccc3)c(-c3ccccc3)[nH]2)cc1,,"inconclusive: 56.2 µM [inhibitor, partial curve]"
Cn1c(=O)c2c(nc(NN=C3CCCC3)n2C)n(C)c1=O,,"inconclusive: 56.2 µM [inhibitor, partial curve]"
COc1cccc(NC(=O)CC2Nc3cc(C)c(C)cc3NC2=O)c1 (configuration not stated),,"inconclusive: 44.7 µM [inhibitor, partial curve]"
N[C@@H](C(=O)N[C@@H]1C(=O)N2C(C(=O)O)=C(Cl)CS[C@H]12)c1ccccc1,,active: 31.6 µM
COc1ccc(C(=O)NCC(c2ccc(N(C)C)cc2)N2CCc3ccccc32)cc1OC (configuration not stated),,active: 20 µM
COc1ccc2c(C)cc3n[nH]c(=S)n3c2c1,,"inconclusive: 79.4 µM [inhibitor, single point]"
